This is one part of the list. The energies were worked out here from pooled read counts, against the library average; single values are noisy.

The results in this text go back to the BET-seq Pho4 binding data (Le et al. 2018).

This test has as its target T1, Pho4 (S. cerevisiae) (UniProt P07270).
T1 sequence: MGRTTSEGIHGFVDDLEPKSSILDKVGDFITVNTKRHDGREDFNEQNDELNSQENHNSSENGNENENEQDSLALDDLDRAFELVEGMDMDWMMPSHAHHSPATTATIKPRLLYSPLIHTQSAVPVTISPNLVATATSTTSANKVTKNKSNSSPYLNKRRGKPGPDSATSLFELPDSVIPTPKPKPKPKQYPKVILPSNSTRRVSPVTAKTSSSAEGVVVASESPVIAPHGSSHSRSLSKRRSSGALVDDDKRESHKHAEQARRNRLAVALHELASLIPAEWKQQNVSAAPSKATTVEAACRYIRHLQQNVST
As to the kind of experiment: relative binding free energy (BET-seq); higher = weaker binding. Particulars: reference: library average.
For the sequence TAATACACGTGAAGGG, the “relative binding free energy” value was found to be 0.24 kcal/mol. The result for TTAGGCACGTGGTCCG reads -0.06 kcal/mol; that for AAGGACACGTGCTAGT, 0.18 kcal/mol; that for CTAGGCACGTGGAATT, -0.05 kcal/mol. On to AATGCCACGTGTGTTT, for which the “relative binding free energy” value is 0.02 kcal/mol.

Consider ATCGACACGTGGTATT, for which the “relative binding free energy” value was 0.05 kcal/mol.

As for AGGGGCACGTGATCTG, the “relative binding free energy” value was -0.01 kcal/mol. For TTATTCACGTGTTTGA the value was 0.24 kcal/mol; for TGCTACACGTGGTAAG, 0.24 kcal/mol.

As to TAGGCCACGTGATAGG, the “relative binding free energy” value is 0.04 kcal/mol. Turning to GCAGTCACGTGGGATG, the “relative binding free energy” value is 0.05 kcal/mol. As for GGGAACACGTGGTTCG, the “relative binding free energy” value stood at 0.04 kcal/mol. Regarding TTCGACACGTGGGTAA, the “relative binding free energy” value was -0.12 kcal/mol.

TGTTCCACGTGGTGTT: the “relative binding free energy” value is -0.07 kcal/mol. On to TTTTTCACGTGTCAGG, for which the “relative binding free energy” value is 0.23 kcal/mol. As for TTAGGCACGTGTGTGG, the “relative binding free energy” value was -0.09 kcal/mol. Consider GTGGGCACGTGTTGTT, for which the “relative binding free energy” value worked out at 0.06 kcal/mol. As for TTGCGCACGTGGGGGG, the “relative binding free energy” value was -0.27 kcal/mol. As for TGGGACACGTGTGTGA, the “relative binding free energy” value is 0.04 kcal/mol. Turning to GTGGCCACGTGGATGG, the “relative binding free energy” value is -0.02 kcal/mol.

Take ATCAACACGTGGGTGG: the “relative binding free energy” value was -0.23 kcal/mol. In the case of TTGGCCACGTGCAGTG, the “relative binding free energy” value was -0.08 kcal/mol. The result for CGTTGCACGTGAGCTT reads 0.19 kcal/mol; that for GGTTGCACGTGCCTAG, 0.07 kcal/mol. For GCGTGCACGTGTAGCG the value was 0.07 kcal/mol; for GGTGTCACGTGTGCAG, 0.07 kcal/mol. For GGACTCACGTGGAGGG the value was 0.12 kcal/mol; for TGGGGCACGTGAGGAA, 0.16 kcal/mol; for TTCTGCACGTGAAAGG, 0.24 kcal/mol. With GCTTGCACGTGTCGGT, the “relative binding free energy” value amounted to 0.16 kcal/mol. For GATATCACGTGTGGTT the value was 0.16 kcal/mol; for GGCGGCACGTGGGATC, -0.07 kcal/mol; for TCGTTCACGTGGTTGG, 0.4 kcal/mol. With GGCTGCACGTGGTGTT, the “relative binding free energy” value is -0.09 kcal/mol.

For ATAGTCACGTGTTCTG, the “relative binding free energy” value came to 0.16 kcal/mol.

As to GTGGTCACGTGGAGGC, the “relative binding free energy” value came out at 0.2 kcal/mol. TGAGGCACGTGGTATT: the “relative binding free energy” value was -0.09 kcal/mol. For CTTGTCACGTGAGGAT the value was 0.34 kcal/mol. In the case of TGCTCCACGTGTTGGT, the “relative binding free energy” value was -0.03 kcal/mol.

For TTATTCACGTGGAATG, the “relative binding free energy” value was 0.34 kcal/mol.

Turning to AGAGGCACGTGGCTTG, the “relative binding free energy” value is -0.15 kcal/mol. The result for ATATTCACGTGATTGA reads 0.37 kcal/mol; that for GATAGCACGTGATGTT, 0.05 kcal/mol; that for TGTCCCACGTGGGGGC, -0.26 kcal/mol. The result for CGTGTCACGTGGGGGC reads -0.06 kcal/mol; that for AATGACACGTGGCGGG, 0.06 kcal/mol.

TTTCTCACGTGATGTC: the “relative binding free energy” value was determined as 0.44 kcal/mol. The result for TAGGCCACGTGTTAAT reads 0.02 kcal/mol. As for GGCGACACGTGGGGGC, the “relative binding free energy” value was -0.1 kcal/mol. For CGAAACACGTGTGTGT, the “relative binding free energy” value is -0.07 kcal/mol.

Take TTTGTCACGTGGATTA: the “relative binding free energy” value was determined as 0.02 kcal/mol.

CGTCGCACGTGGTTGA: the “relative binding free energy” value was -0.07 kcal/mol.

In the case of CGCTTCACGTGTGGGG, the “relative binding free energy” value came out at 0.17 kcal/mol.

In the case of TTTAGCACGTGTTAGC, the “relative binding free energy” value worked out at 0.02 kcal/mol. As for GGGCACACGTGTGGTG, the “relative binding free energy” value was 0.19 kcal/mol.

Consider GGCTGCACGTGTGTGA, for which the “relative binding free energy” value was determined as 0.09 kcal/mol. As to AAATGCACGTGGCTTG, the “relative binding free energy” value is -0.08 kcal/mol. The result for GATTGCACGTGATTTA reads 0.15 kcal/mol; that for TGGATCACGTGTTTTC, 0.37 kcal/mol.

As for ACGATCACGTGTTATG, the “relative binding free energy” value stood at 0.07 kcal/mol. As to TTAGTCACGTGTGCTT, the “relative binding free energy” value is -0.02 kcal/mol.

As to TTGCTCACGTGTATTG, the “relative binding free energy” value came to 0.21 kcal/mol. With GCGGTCACGTGTGCGG, the “relative binding free energy” value stood at 0.03 kcal/mol. Take GTGATCACGTGGCGAG: the “relative binding free energy” value is -0.02 kcal/mol. In the case of GTTACCACGTGGAGGT, the “relative binding free energy” value stood at 0.11 kcal/mol.

With GGTTTCACGTGGAGTA, the “relative binding free energy” value was determined as 0.38 kcal/mol. As for AGGTACACGTGGCTGG, the “relative binding free energy” value was found to be 0.03 kcal/mol.

For the sequence TACGGCACGTGGTGGC, the “relative binding free energy” value was -0.12 kcal/mol.

Regarding CTTGTCACGTGGCTAT, the “relative binding free energy” value amounted to 0.05 kcal/mol. The result for GGTATCACGTGAGGAT reads 0.3 kcal/mol. The result for GGTGACACGTGAGGAC reads 0.24 kcal/mol. The result for TATTACACGTGGTTTG reads 0.03 kcal/mol. Regarding GGTGTCACGTGGCTTC, the “relative binding free energy” value was found to be 0.18 kcal/mol. In the case of GTGCGCACGTGTGCGG, the “relative binding free energy” value was -0.09 kcal/mol. For the sequence TGTAGCACGTGAATCT, the “relative binding free energy” value was 0.42 kcal/mol. On to CGGGCCACGTGCGGGC, for which the “relative binding free energy” value is -0.13 kcal/mol. For GGCGGCACGTGATGGC the value was 0.2 kcal/mol; for TATAGCACGTGAATGG, 0.25 kcal/mol; for TGAAGCACGTGGGGAC, -0.13 kcal/mol. For GTGTTCACGTGTGGCT the value was 0.48 kcal/mol; for TGTGCCACGTGAATTA, 0.2 kcal/mol. Regarding GTTAGCACGTGGGATG, the “relative binding free energy” value was -0.14 kcal/mol. For TGTTCCACGTGATTTG the value was 0.18 kcal/mol; for TGTAGCACGTGTGAGC, -0.05 kcal/mol; for TTAAACACGTGTAGTT, -0.04 kcal/mol.

Turning to GGAGACACGTGGGGGA, the “relative binding free energy” value is -0.08 kcal/mol. In the case of TCTATCACGTGGGATT, the “relative binding free energy” value was 0.27 kcal/mol. For AGGTACACGTGGTATA the value was -0.03 kcal/mol. For GACGACACGTGGTGTG the value was -0.02 kcal/mol; for AGCCTCACGTGGGTGT, 0.09 kcal/mol; for TTATTCACGTGCTTGG, 0.23 kcal/mol. For CTATGCACGTGGGAGT the value was -0.27 kcal/mol; for ATTTACACGTGTTTAT, 0 kcal/mol; for GTTGTCACGTGGTATG, 0.13 kcal/mol. Regarding GGTAACACGTGTCTGG, the “relative binding free energy” value was 0.06 kcal/mol. Consider AGGGTCACGTGATGGA, for which the “relative binding free energy” value came to 0.2 kcal/mol. As for GTCGTCACGTGTTATG, the “relative binding free energy” value came out at 0.19 kcal/mol. For AGATGCACGTGTTGAT, the “relative binding free energy” value is -0.02 kcal/mol. Turning to TATGACACGTGGATTT, the “relative binding free energy” value is 0.16 kcal/mol.

With ATTTACACGTGAAGGT, the “relative binding free energy” value was 0.32 kcal/mol. For ATTGGCACGTGCTAGT the value was -0.34 kcal/mol.

As for TAGATCACGTGGGGCG, the “relative binding free energy” value was -0.02 kcal/mol.

In the case of TTCAGCACGTGTTGTC, the “relative binding free energy” value was -0.01 kcal/mol.

Regarding GGAGACACGTGGGGAG, the “relative binding free energy” value is -0.15 kcal/mol.

In the case of AATGTCACGTGAGCGG, the “relative binding free energy” value turned out to be 0.32 kcal/mol. On to TGTTCCACGTGGGTTT, for which the “relative binding free energy” value was -0.07 kcal/mol. For TTGGGCACGTGCTATT the value was -0.2 kcal/mol; for TTCAGCACGTGAGTTT, 0.19 kcal/mol. For TGAGGCACGTGTCACG the value was 0.02 kcal/mol; for TGGTGCACGTGTAGAT, 0.24 kcal/mol. For TTTCTCACGTGGCGTT the value was 0.15 kcal/mol. Regarding GGTGGCACGTGTCTCG, the “relative binding free energy” value is -0.14 kcal/mol. As to CGCGGCACGTGGTGTT, the “relative binding free energy” value was -0.22 kcal/mol. For TTTGGCACGTGCGTTA the value was -0.21 kcal/mol. As to AATGGCACGTGATAGT, the “relative binding free energy” value was -0.03 kcal/mol. For GGGGGCACGTGTCCTG the value was -0.18 kcal/mol; for ATATGCACGTGCGTGT, -0.16 kcal/mol.

For TGTAGCACGTGGCTTG, the “relative binding free energy” value was -0.25 kcal/mol. The result for GGCTGCACGTGGTGGC reads -0.06 kcal/mol.

With CGTGTCACGTGTTATG, the “relative binding free energy” value is -0.04 kcal/mol. The result for AAAGTCACGTGTGTAC reads 0.11 kcal/mol.

For GTGCTCACGTGGGGCA, the “relative binding free energy” value is -0.01 kcal/mol. For the sequence CAATGCACGTGAGGGT, the “relative binding free energy” value came out at 0.25 kcal/mol. For TGTTTCACGTGAACGG the value was 0.45 kcal/mol.

Turning to GGTTTCACGTGAGGAA, the “relative binding free energy” value worked out at 0.43 kcal/mol.

As to TTAGGCACGTGCGTGA, the “relative binding free energy” value is -0.17 kcal/mol. Consider AGCGACACGTGGATGG, for which the “relative binding free energy” value stood at 0.08 kcal/mol.

Regarding TAAAACACGTGGTTTT, the “relative binding free energy” value was 0 kcal/mol.

Regarding TGTCACACGTGGATAT, the “relative binding free energy” value is 0.06 kcal/mol. For TCGTACACGTGGTTTA the value was -0.03 kcal/mol; for TGTAACACGTGTCGAT, 0.09 kcal/mol. For AGAAGCACGTGGTGGA, the “relative binding free energy” value is -0.01 kcal/mol. For TCAAGCACGTGGGGGT the value was -0.44 kcal/mol; for TGTTACACGTGAAGAT, 0.37 kcal/mol. The result for TCAGACACGTGGTATG reads -0.11 kcal/mol; that for TGGAACACGTGTTGGG, 0.12 kcal/mol. The result for GGTAGCACGTGGTACT reads -0.1 kcal/mol; that for ATTAACACGTGTGAGT, -0.05 kcal/mol. In the case of AGAATCACGTGGTATG, the “relative binding free energy” value came to 0.1 kcal/mol. The result for TATGGCACGTGAGAGG reads 0.09 kcal/mol. For CTTATCACGTGTTGTT the value was 0.21 kcal/mol.

Turning to ATTGACACGTGAGCTG, the “relative binding free energy” value turned out to be 0.08 kcal/mol. Regarding ATGTGCACGTGGTAGA, the “relative binding free energy” value was -0.12 kcal/mol. Regarding GAGAGCACGTGGCTAG, the “relative binding free energy” value was -0.03 kcal/mol. For GGGGTCACGTGATTTA the value was 0.31 kcal/mol; for CGAGGCACGTGTGGGC, -0.16 kcal/mol.
